Data as given in article PMC4336329 (PLoS ONE, 2015).
Screen size: about 310,000 compounds; about 2,200 (0.71%) showed an effect of 50% or more. Effects have a minus sign here. The list shows a part of the results.

molecular target: human ether-à-go-go-related gene (hERG) potassium channel (human, UniProt Q12809); assay: primary screen, population patch clamp on CHO cells stably expressing hERG
Sequence (Q12809 whole entry, looked up): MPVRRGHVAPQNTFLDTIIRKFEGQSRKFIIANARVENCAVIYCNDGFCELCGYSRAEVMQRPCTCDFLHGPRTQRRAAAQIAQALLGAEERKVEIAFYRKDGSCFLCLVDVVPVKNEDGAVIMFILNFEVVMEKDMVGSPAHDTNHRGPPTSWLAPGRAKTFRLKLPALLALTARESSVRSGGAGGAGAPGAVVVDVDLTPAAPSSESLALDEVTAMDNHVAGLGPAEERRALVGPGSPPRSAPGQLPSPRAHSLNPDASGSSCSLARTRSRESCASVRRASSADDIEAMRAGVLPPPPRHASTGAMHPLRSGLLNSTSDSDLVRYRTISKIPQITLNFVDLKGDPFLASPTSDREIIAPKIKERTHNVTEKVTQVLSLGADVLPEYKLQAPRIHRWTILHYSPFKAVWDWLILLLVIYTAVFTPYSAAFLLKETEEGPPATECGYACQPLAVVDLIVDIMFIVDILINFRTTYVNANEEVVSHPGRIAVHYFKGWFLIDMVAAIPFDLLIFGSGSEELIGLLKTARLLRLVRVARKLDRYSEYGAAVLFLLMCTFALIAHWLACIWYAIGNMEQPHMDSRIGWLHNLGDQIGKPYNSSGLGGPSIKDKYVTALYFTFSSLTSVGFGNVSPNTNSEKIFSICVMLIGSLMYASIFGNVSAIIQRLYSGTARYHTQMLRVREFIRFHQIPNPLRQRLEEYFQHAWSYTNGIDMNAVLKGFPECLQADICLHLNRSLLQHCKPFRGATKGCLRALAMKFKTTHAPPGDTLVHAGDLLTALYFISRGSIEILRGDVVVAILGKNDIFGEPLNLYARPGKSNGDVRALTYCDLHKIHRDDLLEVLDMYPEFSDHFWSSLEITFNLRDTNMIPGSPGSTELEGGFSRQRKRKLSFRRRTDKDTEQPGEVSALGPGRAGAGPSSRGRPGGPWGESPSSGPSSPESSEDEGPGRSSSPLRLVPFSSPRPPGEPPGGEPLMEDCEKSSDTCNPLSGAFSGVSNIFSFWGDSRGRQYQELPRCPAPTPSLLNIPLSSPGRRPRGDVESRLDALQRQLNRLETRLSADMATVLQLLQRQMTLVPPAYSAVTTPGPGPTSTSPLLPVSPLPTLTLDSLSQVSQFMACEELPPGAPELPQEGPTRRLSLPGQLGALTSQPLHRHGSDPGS

Going from `O=C(NCc1cccc(C(F)(F)F)c1)N1CCN(S(=O)(=O)c2ccccc2F)CC1` to `CS(=O)(=O)N(CC(=O)N1CCN(c2ccccc2F)CC1)c1cc(C(F)(F)F)ccc1Cl`, the “hERG current change (%, negative = inhibition) at 1uM” value rises from 8.23% to 12%.

Compared with `O=C(Nc1ccc(F)cc1)NC1(C(=O)NCc2cccs2)CCCCC1`, `Cc1ccc(CNC(=O)C2CCCN(C(=O)Nc3ccc(F)cc3)C2)cc1` (stereo not drawn) is lower in “hERG current change (%, negative = inhibition) at 1uM” value: 5.04% for the first, 1.77% for the second.

First: Cn1c(=O)c2c(nc(NCc3ccccc3)n2CCCc2ccccc2)n(C)c1=O
Second: Cc1ccccc1Cn1c(CN2CCN(C(=O)c3ccco3)CC2)nc2c1c(=O)n(C)c(=O)n2C
The “hERG current change (%, negative = inhibition) at 1uM” value of the first is higher: 7.49% for the first, -16.4% for the second.

First: NC(=O)c1ccc(=O)n(Cc2ccc(F)c(F)c2)c1
Second: CCOC(=O)NC(O)C(=O)c1ccc(F)cc1 (stereo not drawn)
The “hERG current change (%, negative = inhibition) at 1uM” value of the first is lower: 15.3% for the first, 17.7% for the second.

Going from `Cc1ccc([N+](=O)[O-])c(C)[n+]1C.[I-]` to `COc1ccc(CNC(=O)c2c(C)cc(=O)oc2C)cc1`, the “hERG current change (%, negative = inhibition) at 1uM” value falls from 19.8% to 0.196%.

Compared with `Cc1[nH]nc2c1C(=O)CC(C)(C)C2`, `Cc1[nH]c2ccc(-c3n[nH]c(=S)n3C)cc2c1C` is lower in “hERG current change (%, negative = inhibition) at 1uM” value: 4.55% for the first, -8.56% for the second.

Compared with `O=C(CCN1C(=O)C2CCCCC2C1=O)NNC(=O)c1cccc(Cl)c1` (stereo not drawn), `NS(=O)(=O)c1ccc(NC(=O)c2cccc(Cl)c2)cc1` is lower in “hERG current change (%, negative = inhibition) at 1uM” value: 10.7% for the first, 10.4% for the second.

Going from `COc1ccc([N+](=O)[O-])cc1NC(=O)CCN1CCN(CCO)CC1` to `CCOc1ccc(S(=O)(=O)N2CCOCC2)cc1NC(=O)CSC(=S)N1CCCC1`, the “hERG current change (%, negative = inhibition) at 1uM” value rises from 1.93% to 7.63%.

Compared with `O=C1C=C(c2cccc3c2oc2ccccc23)CCC1`, `CCOc1ccc(NC2=C(OC)C(=O)c3ccccc3C2=O)cc1` is lower in “hERG current change (%, negative = inhibition) at 1uM” value: 5.88% for the first, -0.565% for the second.

Compared with `CCN(C(=O)CC(C)C)c1nnc(Cn2nnc3ccccc32)s1`, `CCc1nnc(NC(=O)c2cccc(NC(=O)C(C)C)c2)s1` is higher in “hERG current change (%, negative = inhibition) at 1uM” value: 5.22% for the first, 9.32% for the second.

Going from `O=C(NC12CC3CC(CC(C3)C1)C2)C1=COCCO1` to `O=C(CCC1CCCCC1)NCc1cccs1`, the “hERG current change (%, negative = inhibition) at 1uM” value falls from 9.19% to 8.76%.

First: Cc1noc(C)c1C(=O)OCC(=O)Nc1ccc(C(N)=O)cc1
Second: CCCC(=O)OCC(=O)Nc1ccc2[nH]c(=O)[nH]c2c1
The “hERG current change (%, negative = inhibition) at 1uM” value of the first is higher: 13.7% for the first, 10.1% for the second.

Compared with `COc1ccc2c(c1)c(=O)oc1cc(OCC(=O)NC3CCCCC3)ccc12`, `COc1cccc(C(=O)Oc2ccc(N3C(=O)CCC3=O)c(C)c2)c1` is higher in “hERG current change (%, negative = inhibition) at 1uM” value: 4.75% for the first, 10.6% for the second.

First: O=C(O)C1CCN(c2ccc(Cl)nn2)CC1
Second: N/C(=N\O)c1ccc(N2CCN(c3ncccc3C(F)(F)F)CC2)nc1
The “hERG current change (%, negative = inhibition) at 1uM” value of the first is lower: 2.29% for the first, 8.16% for the second.

Going from `COc1ccc(CN2CCC(c3nc4ccc(Cl)cc4[nH]3)CC2)cc1` to `COc1ccc(CNS(=O)(=O)c2cc3c(cc2C)N(C)CCO3)cc1`, the “hERG current change (%, negative = inhibition) at 1uM” value rises from -84% to 7.17%.

First: Cc1cccc(C(=O)NCCc2n[nH]c(=S)n2C)c1
Second: CC(=O)Nc1c(O)nc(SCC(=O)Nc2cccc(C)c2)[nH]c1=O
The “hERG current change (%, negative = inhibition) at 1uM” value of the first is lower: 3.01% for the first, 14.8% for the second.

First: Cc1sc2nc(CSCC(=O)Nc3c(F)cccc3F)[nH]c(=O)c2c1C
Second: CCOC(=O)CSc1nc2sc(C)c(C)c2c(=O)[nH]1
The “hERG current change (%, negative = inhibition) at 1uM” value of the first is lower: 8.68% for the first, 14% for the second.

Compared with `O=C(Cc1ccccc1F)NNC(=O)c1ccncc1`, `COc1ccc(NC(=O)Nc2ccccc2F)cc1` is higher in “hERG current change (%, negative = inhibition) at 1uM” value: 5.56% for the first, 14.7% for the second.

Going from `Cc1ccc(NC(N)=S)cc1` to `CCOC(=O)C1=C(C)Nc2nc(C)nn2C1c1ccc(C)cc1` (stereo not drawn), the “hERG current change (%, negative = inhibition) at 1uM” value falls from 11.6% to 7.1%.

Going from `COc1ccc(N=Nc2nc(-c3ccccc3)c(-c3ccccc3)[nH]2)cc1` to `COc1cccc(/C=N/Nc2nc(-c3cccnc3)nc3ccccc23)c1`, the “hERG current change (%, negative = inhibition) at 1uM” value rises from 3.26% to 9.74%.

Going from `CS(=O)(=O)Nc1cccc(C2=NN(C(=O)CCC(=O)O)C(c3cccs3)C2)c1` (stereo not drawn) to `CC(=O)c1ccc(-n2c(CCC(=O)O)ccc2-c2cccs2)cc1`, the “hERG current change (%, negative = inhibition) at 1uM” value falls from 10.4% to 9.8%.

Compared with `CC1CCCC(NC(=O)c2cc(S(=O)(=O)N3CCCCC3)ccc2Cl)C1C` (stereo not drawn), `CCN1CCN(c2ccc(S(=O)(=O)N3CCOCC3)cc2NC(=O)c2ccc(Cl)cc2Cl)CC1` is higher in “hERG current change (%, negative = inhibition) at 1uM” value: 0.503% for the first, 8.83% for the second.

Going from `CCOc1ccc(-n2cc(-c3ccccc3)c3c(SC(C)C(=O)OC)ncnc32)cc1` (stereo not drawn) to `O=C(OCc1nnc(-c2ccccc2)o1)c1cc2ccccc2cc1O`, the “hERG current change (%, negative = inhibition) at 1uM” value falls from 20.1% to 9.48%.

Going from `Cc1ccc(NS(=O)(=O)c2ccc3c(c2)oc(=O)n3C)cc1F` to `O=C1/C(=C/c2cccnc2)Oc2cc(OS(=O)(=O)c3ccc(Cl)cc3)ccc21`, the “hERG current change (%, negative = inhibition) at 1uM” value falls from 12.6% to -2.81%.

First: C[C@H]1CCC[C@]2(C)C[C@H]3OC(=O)C(CN4CCCCCC4)[C@H]3C=C12 (stereo partly drawn)
Second: O=C(/C=C/c1cn(CC(O)CN2CCCCCC2)c2ccccc12)c1cccs1 (stereo not drawn)
The “hERG current change (%, negative = inhibition) at 1uM” value of the first is higher: 4.66% for the first, -37.9% for the second.

Compared with `O=C(Nc1ccccc1F)C1(c2ccccc2)CC1(Cl)Cl` (stereo not drawn), `O=C(COc1ccccc1)N1CCN(C(=O)c2ccccc2F)CC1` is higher in “hERG current change (%, negative = inhibition) at 1uM” value: -1.95% for the first, 17.8% for the second.

First: COc1cccc2cc(-c3ccnc(=S)[nH]3)oc12
Second: COc1cc(-c2n[nH]c(=S)n2-c2cccc(C(F)(F)F)c2)cc(OC)c1OC
The “hERG current change (%, negative = inhibition) at 1uM” value of the first is lower: 10.5% for the first, 18.6% for the second.

Going from `O=C(NCc1ccccc1)C(=O)NCC1OCCN1S(=O)(=O)c1ccc2c(c1)OCCO2` (stereo not drawn) to `O=c1cccc2n1CC1CC2CN(S(=O)(=O)c2ccccc2)C1` (stereo not drawn), the “hERG current change (%, negative = inhibition) at 1uM” value falls from 7.35% to 1.76%.

First: O=C(O)CN1C(=O)/C(=C\c2cc(Br)ccc2OCc2ccccc2F)SC1=S
Second: COc1ccc(CNC(=O)CN(C(=O)c2snc(C(N)=O)c2N)c2ccccc2F)cc1
The “hERG current change (%, negative = inhibition) at 1uM” value of the first is higher: 21% for the first, 18.4% for the second.

Compared with `CCOC(=O)C1(C)C=C(Nc2ccccc2)C(=O)N1c1ccccc1` (stereo not drawn), `CN(C(=O)COC(=O)c1cc[n+]([O-])cc1)c1ccccc1` is higher in “hERG current change (%, negative = inhibition) at 1uM” value: 7.16% for the first, 15.5% for the second.

Compared with `O=c1[nH]ncc(N2CCN(C(c3ccccc3)c3ccccc3)CC2)c1Cl`, `O=C(C1COc2ccccc2O1)N1CCN(c2nc3ccc([N+](=O)[O-])cc3s2)CC1` (stereo not drawn) is lower in “hERG current change (%, negative = inhibition) at 1uM” value: 7.46% for the first, -2.5% for the second.

First: CC(C)Sc1nc(N2CCOCC2)c2c3c(sc2n1)COC(C)(C)C3
Second: O=C(c1ccc(N2CCCCC2)c([N+](=O)[O-])c1)N1CCN(c2ccccn2)CC1
The “hERG current change (%, negative = inhibition) at 1uM” value of the first is higher: 8.24% for the first, -32% for the second.

First: Cc1csc(=O)n1CCC(=O)OCC(=O)c1c(N)n(C)c(=O)n(C)c1=O
Second: COc1ccc(C2C(C(N)=O)=C(C)Nc3nc(CCCO)nn32)cc1 (stereo not drawn)
The “hERG current change (%, negative = inhibition) at 1uM” value of the first is lower: 2.2% for the first, 13.5% for the second.

Compared with `N=c1c(S(=O)(=O)c2ccccc2)cc2c(=O)n3ccccc3nc2n1Cc1cccnc1`, `CC12C(=O)N(c3ccc(OC(=O)c4ccco4)cc3)C(=O)C1C1c3ccccc3C2c2ccccc21` (stereo not drawn) is higher in “hERG current change (%, negative = inhibition) at 1uM” value: 6.5% for the first, 9.93% for the second.

Going from `CC(C)=CC(=O)OCc1cc([N+](=O)[O-])cc2c1OCOC2` to `O=C(NC(=S)Nc1cc([N+](=O)[O-])ccc1O)c1ccc2c(c1)OCO2`, the “hERG current change (%, negative = inhibition) at 1uM” value falls from 9.48% to 6.26%.

First: Cc1c(NC(=O)Nc2ccccc2Cl)sc(=S)n1C
Second: COc1ccc(C(=O)N[C@H](C(=O)Nc2nc3ccccc3[nH]2)C(C)C)cc1
The “hERG current change (%, negative = inhibition) at 1uM” value of the first is lower: -4.35% for the first, 17.3% for the second.

First: COC(=O)c1cc(C(=O)Nc2nnc(C3CC3)s2)cc([N+](=O)[O-])c1
Second: COc1ccc(C2=NN(C(C)=O)CC2c2cccc([N+](=O)[O-])c2)cc1 (stereo not drawn)
The “hERG current change (%, negative = inhibition) at 1uM” value of the first is higher: 18.7% for the first, 6.63% for the second.

Going from `O=[N+]([O-])c1ccc(-c2ccc(/C=N/n3cnnc3)o2)c(Br)c1` to `C/C(=N\NC(=O)CSCc1ccc([N+](=O)[O-])cc1)c1ccccc1O`, the “hERG current change (%, negative = inhibition) at 1uM” value rises from 4.14% to 13.5%.

Going from `O=S(=O)(Nc1nc2ccccc2nc1NCC1CCCO1)c1cccs1` (stereo not drawn) to `CN(CC(=O)NCCc1ccc(Cl)cc1)S(=O)(=O)c1cccs1`, the “hERG current change (%, negative = inhibition) at 1uM” value falls from 4.63% to -0.434%.

Compared with `COc1cc(NC(=O)CCc2ccccc2)c(C(=O)O)cc1OC`, `COc1ccc(OC)c(Nc2ccc(Nc3cc(OC)ccc3OC)nn2)c1` is higher in “hERG current change (%, negative = inhibition) at 1uM” value: -0.356% for the first, 10.8% for the second.

Compared with `O=C1NC(=S)NC(=O)C1C1CCCCC1`, `C=CCOC(=O)C1=C(C)NC(=S)NC1c1cccs1` (stereo not drawn) is lower in “hERG current change (%, negative = inhibition) at 1uM” value: 5.26% for the first, 2.16% for the second.

Compared with `Cc1cccc(S(=O)Cc2ccc(C(=O)N3CCN(C(=O)c4ccco4)CC3)o2)c1` (stereo not drawn), `COc1ccc(-c2cc(C(F)(F)F)n3ncc(C(=O)N4CCCCC4c4cccnc4)c3n2)cc1` (stereo not drawn) is higher in “hERG current change (%, negative = inhibition) at 1uM” value: 9.81% for the first, 14.9% for the second.

Going from `CN(C)c1ccc(CNc2ncc(Br)cc2Br)cc1` to `CNc1nc(=S)[nH]c2ccccc12`, the “hERG current change (%, negative = inhibition) at 1uM” value rises from 0.0422% to 11.4%.

First: CSc1ccc(Cl)c(C(=O)OCC(=O)N2CC(C)OC(C)C2)c1 (stereo not drawn)
Second: Cc1ccc(C(C)C)c(OCCOCCN2CCNCC2)c1.O=C(O)C(=O)O
The “hERG current change (%, negative = inhibition) at 1uM” value of the first is lower: 9.15% for the first, 11.3% for the second.

Going from `CCOc1cc(/C=C2\CCCC(C(=O)C(F)(F)F)=C2O)ccc1O` to `CC(C)(C)c1ccccc1OCC(=O)NCCCn1ccnc1`, the “hERG current change (%, negative = inhibition) at 1uM” value falls from 8.79% to -0.408%.
